The text below walks through data of article PMC6023881.

Chains of the proteins cited; added tags and fusions are not shown. Lines headed by an entry give the natural chain unless they say otherwise; changes in a name come on top. Residues count along the entry.
UniProt Q13485: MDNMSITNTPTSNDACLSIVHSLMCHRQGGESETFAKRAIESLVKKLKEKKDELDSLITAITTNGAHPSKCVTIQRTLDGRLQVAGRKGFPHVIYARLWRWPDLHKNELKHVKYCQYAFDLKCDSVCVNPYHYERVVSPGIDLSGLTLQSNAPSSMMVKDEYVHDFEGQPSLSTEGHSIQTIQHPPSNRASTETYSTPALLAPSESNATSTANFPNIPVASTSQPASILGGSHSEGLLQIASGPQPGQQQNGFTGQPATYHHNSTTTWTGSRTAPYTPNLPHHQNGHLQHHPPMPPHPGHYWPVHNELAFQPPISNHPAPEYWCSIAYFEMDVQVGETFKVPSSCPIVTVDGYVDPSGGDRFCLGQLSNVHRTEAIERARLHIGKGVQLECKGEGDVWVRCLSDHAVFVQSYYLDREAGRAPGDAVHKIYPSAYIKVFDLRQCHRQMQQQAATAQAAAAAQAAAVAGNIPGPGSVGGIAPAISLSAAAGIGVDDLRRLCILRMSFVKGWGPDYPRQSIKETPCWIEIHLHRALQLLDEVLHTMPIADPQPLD
GST-Smad4-MH1: residues 18-142 of Q13485
GST-Smad4 MH2 domain: residues 323-552 of Q13485
UniProt Q9H4L4: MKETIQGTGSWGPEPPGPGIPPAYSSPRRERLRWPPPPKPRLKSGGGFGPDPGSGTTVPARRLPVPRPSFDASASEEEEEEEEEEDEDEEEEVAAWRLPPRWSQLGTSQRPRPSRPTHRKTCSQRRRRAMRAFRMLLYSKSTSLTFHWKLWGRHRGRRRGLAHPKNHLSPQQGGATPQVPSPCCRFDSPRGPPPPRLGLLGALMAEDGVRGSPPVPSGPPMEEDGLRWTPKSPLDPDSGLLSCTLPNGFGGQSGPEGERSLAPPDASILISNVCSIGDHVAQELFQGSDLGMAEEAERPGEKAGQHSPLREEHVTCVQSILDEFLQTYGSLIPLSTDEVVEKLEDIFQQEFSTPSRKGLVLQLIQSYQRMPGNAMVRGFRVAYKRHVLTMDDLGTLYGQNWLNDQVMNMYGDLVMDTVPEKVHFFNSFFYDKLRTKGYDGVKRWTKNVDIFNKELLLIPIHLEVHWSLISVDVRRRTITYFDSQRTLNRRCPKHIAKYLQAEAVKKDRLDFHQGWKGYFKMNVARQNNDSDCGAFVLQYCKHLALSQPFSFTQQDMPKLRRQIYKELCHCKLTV

No constants are given. Whether binding was seen depends on the method and setting. For part of these data: In cells and extracts the contact can be indirect. Some binding calls cover weakened binding; strength is not graded here. For part of these data: Tags and fused reporters may be left off the sequences shown.

Assay [1] addresses T1, Flag-SENP2 (human) (UniProt Q9HC62).
T1 sequence: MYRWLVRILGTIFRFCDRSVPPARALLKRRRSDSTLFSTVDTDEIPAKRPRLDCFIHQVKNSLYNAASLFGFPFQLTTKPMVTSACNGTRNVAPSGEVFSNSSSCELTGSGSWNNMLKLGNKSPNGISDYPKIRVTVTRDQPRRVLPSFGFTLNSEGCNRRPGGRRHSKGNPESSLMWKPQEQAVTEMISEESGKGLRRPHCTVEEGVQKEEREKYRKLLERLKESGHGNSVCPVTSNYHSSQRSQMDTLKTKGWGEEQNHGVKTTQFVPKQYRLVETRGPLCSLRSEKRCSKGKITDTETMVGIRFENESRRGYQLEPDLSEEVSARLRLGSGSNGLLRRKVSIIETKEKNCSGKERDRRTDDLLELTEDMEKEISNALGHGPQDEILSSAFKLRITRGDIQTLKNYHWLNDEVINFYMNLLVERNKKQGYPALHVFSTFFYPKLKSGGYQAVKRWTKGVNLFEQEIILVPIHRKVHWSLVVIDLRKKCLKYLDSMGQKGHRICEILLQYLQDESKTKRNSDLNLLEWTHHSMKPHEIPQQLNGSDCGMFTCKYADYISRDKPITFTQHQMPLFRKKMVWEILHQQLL
As to the kind of experiment: co-IP; 293T cells transfected for 48 h, RIPA lysates, IP and Western blot with anti-HA and anti-Flag antibodies; IP and reciprocal IP. A general note: A western blot detects proteins with antibodies after separation by electrophoresis.

In assay [2] the target is LexA-Smad4 (UniProt Q13485). The experiment in a line: two-hybrid; LexA-Smad4 as bait, Gal-AD-SENP variants as prey, L40 yeast; β-galactosidase liquid assay normalised by cell density.
In assay [3] the target is HA-Smad4 (UniProt Q13485). The experiment in a line: co-IP; 293T cells transfected for 48 h, RIPA lysates, IP and Western blot with anti-HA and anti-Flag antibodies; IP and reciprocal IP.
The target in assay [4] is Smad4 (epitope-tagged, transfected; co-IP of Fig. 3C and Fig. S2A) (UniProt Q13485). The experiment in a line: co-IP; co-IP of Fig. S2A; cells and antibodies not shown.
For assay [5], the target named is GST-Smad4 MH2 domain (UniProt Q13485). As to the kind of experiment: pull-down; recombinant His-SENP2 363-400 pulled down by GST or GST-Smad4 subdomain proteins; blot with anti-His.
The target in assay [6] is GST-Smad4-MH1 (UniProt Q13485). Described as above.
Assay [7] addresses endogenous Smad4 (human (endogenous in MDA-MB-231)) (UniProt Q13485). The experiment in a line: co-IP; endogenous proteins; nuclear fraction of MDA-MB-231 cells, with or without TGF-β; IP anti-Smad4, blot anti-SENP2.
Assay [8] deals with HA-Smad4 overexpressed in MDA-MB-231 cells (UniProt Q13485). As to the kind of experiment: co-IP; cytosol and nuclear fractions of HA-Smad4 overexpressing MDA-MB-231 cells, with or without TGF-β; IP anti-HA, blot anti-SENP2.
The target in assay [9] is Smad4 (epitope-tagged, transfected; co-IP of Fig. 3C and Fig. S2A) (UniProt Q13485). As to the kind of experiment: co-IP; HeLa cells transfected for 48 h; IP and Western blot with anti-HA and anti-Flag antibodies; SENP3 as negative control for IP.

Regarding HA-Smad4 (from UniProt Q13485 1-552), in [1], the binding result is “binds”.

On to “Gal-AD-SENP3 (from UniProt Q9H4L4 1-574) (enzyme)”, for which, in [2], the binding entry is listed as “no binding”.

B1: Gal-AD-SENP2-N (SENP2 regulatory domain, aa 1~362) (domain or fragment, UniProt Q9HC62-1 1-362)
chain: MYRWLVRILGTIFRFCDRSVPPARALLKRRRSDSTLFSTVDTDEIPAKRPRLDCFIHQVKNSLYNAASLFGFPFQLTTKPMVTSACNGTRNVAPSGEVFSNSSSCELTGSGSWNNMLKLGNKSPNGISDYPKIRVTVTRDQPRRVLPSFGFTLNSEGCNRRPGGRRHSKGNPESSLMWKPQEQAVTEMISEESGKGLRRPHCTVEEGVQKEEREKYRKLLERLKESGHGNSVCPVTSNYHSSQRSQMDTLKTKGWGEEQNHGVKTTQFVPKQYRLVETRGPLCSLRSEKRCSKGKITDTETMVGIRFENESRRGYQLEPDLSEEVSARLRLGSGSNGLLRRKVSIIETKEKNCSGKERDRRT
Turning to B1, the binding entry in [2] was “no binding”.

B2: Flag-SENP2-N (aa 1~362) (domain or fragment, UniProt Q9HC62-1 1-362)
chain: MYRWLVRILGTIFRFCDRSVPPARALLKRRRSDSTLFSTVDTDEIPAKRPRLDCFIHQVKNSLYNAASLFGFPFQLTTKPMVTSACNGTRNVAPSGEVFSNSSSCELTGSGSWNNMLKLGNKSPNGISDYPKIRVTVTRDQPRRVLPSFGFTLNSEGCNRRPGGRRHSKGNPESSLMWKPQEQAVTEMISEESGKGLRRPHCTVEEGVQKEEREKYRKLLERLKESGHGNSVCPVTSNYHSSQRSQMDTLKTKGWGEEQNHGVKTTQFVPKQYRLVETRGPLCSLRSEKRCSKGKITDTETMVGIRFENESRRGYQLEPDLSEEVSARLRLGSGSNGLLRRKVSIIETKEKNCSGKERDRRT
With B2, in [3], the binding entry is given as “no binding”.

B3: SENP2^1~400 (domain or fragment, UniProt Q9HC62-1 1-400)
chain: MYRWLVRILGTIFRFCDRSVPPARALLKRRRSDSTLFSTVDTDEIPAKRPRLDCFIHQVKNSLYNAASLFGFPFQLTTKPMVTSACNGTRNVAPSGEVFSNSSSCELTGSGSWNNMLKLGNKSPNGISDYPKIRVTVTRDQPRRVLPSFGFTLNSEGCNRRPGGRRHSKGNPESSLMWKPQEQAVTEMISEESGKGLRRPHCTVEEGVQKEEREKYRKLLERLKESGHGNSVCPVTSNYHSSQRSQMDTLKTKGWGEEQNHGVKTTQFVPKQYRLVETRGPLCSLRSEKRCSKGKITDTETMVGIRFENESRRGYQLEPDLSEEVSARLRLGSGSNGLLRRKVSIIETKEKNCSGKERDRRTDDLLELTEDMEKEISNALGHGPQDEILSSAFKLRITRG
Regarding B3, in assay [4], the binding entry is given as “binds”.

Consider DDLLELTEDMEKEISNALGHGPQDEILSSAFKLRITRG (domain or fragment, UniProt Q9HC62-1 363-400) [His-SENP2^363~400], for which the binding result in assay [5] is given as “no binding”; in assay [6], “binds”.

B4: Gal-AD-SENP2 (enzyme, UniProt Q9HC62-1 1-589)
chain: MYRWLVRILGTIFRFCDRSVPPARALLKRRRSDSTLFSTVDTDEIPAKRPRLDCFIHQVKNSLYNAASLFGFPFQLTTKPMVTSACNGTRNVAPSGEVFSNSSSCELTGSGSWNNMLKLGNKSPNGISDYPKIRVTVTRDQPRRVLPSFGFTLNSEGCNRRPGGRRHSKGNPESSLMWKPQEQAVTEMISEESGKGLRRPHCTVEEGVQKEEREKYRKLLERLKESGHGNSVCPVTSNYHSSQRSQMDTLKTKGWGEEQNHGVKTTQFVPKQYRLVETRGPLCSLRSEKRCSKGKITDTETMVGIRFENESRRGYQLEPDLSEEVSARLRLGSGSNGLLRRKVSIIETKEKNCSGKERDRRTDDLLELTEDMEKEISNALGHGPQDEILSSAFKLRITRGDIQTLKNYHWLNDEVINFYMNLLVERNKKQGYPALHVFSTFFYPKLKSGGYQAVKRWTKGVNLFEQEIILVPIHRKVHWSLVVIDLRKKCLKYLDSMGQKGHRICEILLQYLQDESKTKRNSDLNLLEWTHHSMKPHEIPQQLNGSDCGMFTCKYADYISRDKPITFTQHQMPLFRKKMVWEILHQQLL
On to B4, for which the binding result in [2] is listed as “binds”.

B5: Flag-SENP2 (enzyme, UniProt Q9HC62-1 1-589)
chain: MYRWLVRILGTIFRFCDRSVPPARALLKRRRSDSTLFSTVDTDEIPAKRPRLDCFIHQVKNSLYNAASLFGFPFQLTTKPMVTSACNGTRNVAPSGEVFSNSSSCELTGSGSWNNMLKLGNKSPNGISDYPKIRVTVTRDQPRRVLPSFGFTLNSEGCNRRPGGRRHSKGNPESSLMWKPQEQAVTEMISEESGKGLRRPHCTVEEGVQKEEREKYRKLLERLKESGHGNSVCPVTSNYHSSQRSQMDTLKTKGWGEEQNHGVKTTQFVPKQYRLVETRGPLCSLRSEKRCSKGKITDTETMVGIRFENESRRGYQLEPDLSEEVSARLRLGSGSNGLLRRKVSIIETKEKNCSGKERDRRTDDLLELTEDMEKEISNALGHGPQDEILSSAFKLRITRGDIQTLKNYHWLNDEVINFYMNLLVERNKKQGYPALHVFSTFFYPKLKSGGYQAVKRWTKGVNLFEQEIILVPIHRKVHWSLVVIDLRKKCLKYLDSMGQKGHRICEILLQYLQDESKTKRNSDLNLLEWTHHSMKPHEIPQQLNGSDCGMFTCKYADYISRDKPITFTQHQMPLFRKKMVWEILHQQLL
Turning to B5, the binding entry in assay [3] is recorded as “binds”.

B6: endogenous SENP2 (enzyme, UniProt Q9HC62 1-589)
chain: MYRWLVRILGTIFRFCDRSVPPARALLKRRRSDSTLFSTVDTDEIPAKRPRLDCFIHQVKNSLYNAASLFGFPFQLTTKPMVTSACNGTRNVAPSGEVFSNSSSCELTGSGSWNNMLKLGNKSPNGISDYPKIRVTVTRDQPRRVLPSFGFTLNSEGCNRRPGGRRHSKGNPESSLMWKPQEQAVTEMISEESGKGLRRPHCTVEEGVQKEEREKYRKLLERLKESGHGNSVCPVTSNYHSSQRSQMDTLKTKGWGEEQNHGVKTTQFVPKQYRLVETRGPLCSLRSEKRCSKGKITDTETMVGIRFENESRRGYQLEPDLSEEVSARLRLGSGSNGLLRRKVSIIETKEKNCSGKERDRRTDDLLELTEDMEKEISNALGHGPQDEILSSAFKLRITRGDIQTLKNYHWLNDEVINFYMNLLVERNKKQGYPALHVFSTFFYPKLKSGGYQAVKRWTKGVNLFEQEIILVPIHRKVHWSLVVIDLRKKCLKYLDSMGQKGHRICEILLQYLQDESKTKRNSDLNLLEWTHHSMKPHEIPQQLNGSDCGMFTCKYADYISRDKPITFTQHQMPLFRKKMVWEILHQQLL
Take B6: the binding result in [7] and in assay [8] was “binds” in each case.

B7: SENP2 (epitope-tagged, transfected; co-IP of Figs 3C and 3D) (enzyme, UniProt Q9HC62-1 1-589)
chain: MYRWLVRILGTIFRFCDRSVPPARALLKRRRSDSTLFSTVDTDEIPAKRPRLDCFIHQVKNSLYNAASLFGFPFQLTTKPMVTSACNGTRNVAPSGEVFSNSSSCELTGSGSWNNMLKLGNKSPNGISDYPKIRVTVTRDQPRRVLPSFGFTLNSEGCNRRPGGRRHSKGNPESSLMWKPQEQAVTEMISEESGKGLRRPHCTVEEGVQKEEREKYRKLLERLKESGHGNSVCPVTSNYHSSQRSQMDTLKTKGWGEEQNHGVKTTQFVPKQYRLVETRGPLCSLRSEKRCSKGKITDTETMVGIRFENESRRGYQLEPDLSEEVSARLRLGSGSNGLLRRKVSIIETKEKNCSGKERDRRTDDLLELTEDMEKEISNALGHGPQDEILSSAFKLRITRGDIQTLKNYHWLNDEVINFYMNLLVERNKKQGYPALHVFSTFFYPKLKSGGYQAVKRWTKGVNLFEQEIILVPIHRKVHWSLVVIDLRKKCLKYLDSMGQKGHRICEILLQYLQDESKTKRNSDLNLLEWTHHSMKPHEIPQQLNGSDCGMFTCKYADYISRDKPITFTQHQMPLFRKKMVWEILHQQLL
Take B7: the binding entry in [9] is reported as “binds”.
